# Source: ChEMBL document CHEMBL4888484, “Replenishing the malaria drug discovery pipeline: Screening and hit evaluation of the MMV Hit Generation Library 1 (HGL1) against asexual blood stage Plasmodium falciparum ,using a nano luciferase reporter read-out” (2022)
# About 540 (0.36%) of roughly 150,000 compounds showed an effect of 50% or more. Some of the results follow.
# Tested on: Plasmodium falciparum
# Assay: Primary screen in NF54 nanoGlo assay, in single point, at 2uM, 72h; a lower Z score goes with more inhibition
# Type: functional, Erythrocyte
# Conditions: timepoint 72 hour
SMILES,% Inhibition,Z score
COCCCNC(=O)C1CCN(C(=O)N2C[C@@H]3C[C@H](C2)[C@H]2CCCC(=O)N2C3)CC1,-2%,0.32
CN(C)S(=O)(=O)c1ccc(C(=O)N2CCCC[C@H](c3ccc(F)cc3)C2)cc1,-5%,0.75
CCN(Cc1ccc(Cl)s1)S(=O)(=O)Cc1ccc(F)cc1C,-12%,1.89
O=C(NCCc1cnc(C2CC2)nc1)NC1CCOC2(CCOC2)C1 (stereo unspecified),-7%,0.88
Cc1ccc(CNC(=O)[C@@](C)(O)C2CCOCC2)s1,-5%,0.74
CN1CCC(N(C)C2CCCCC2N(C)C(=O)Nc2ccc(F)cc2Cl)CC1 (stereo unspecified),0%,0.05
CCCc1ccc(OCCNC(=O)N2CCN3C(=O)CNC(=O)[C@@H]3C2)cc1,-17%,2.43
O=C(C1CC1c1ccccc1)N1CCN(c2ccccc2)CC1 (stereo unspecified),-11%,1.23
O=C(Nc1ccc(-c2ccc3ccccc3n2)cc1)c1ccc(F)cc1,-7%,1.04
COc1ccccc1NC(=O)Cn1cc(S(=O)(=O)c2ccc(Cl)cc2)c(=O)c2ccc(C)nc21,-25%,2.54
Cn1cccc1CN[C@H]1CCOc2ccc(F)cc21,-10%,1.36
Cc1cc(CNC(=O)[C@]2(c3ccc(F)cc3)CC2(C)C)ccn1,-7%,1.44
CN(C[C@H]1CCOC1)c1ccccc1S(C)(=O)=O,-16%,1.66
Cc1ccc(NC(=O)CC(=O)N[C@@H](C)c2nc3cc(C)ccc3[nH]2)c(C)c1,-3%,0.54
Cc1cc(F)ccc1S(=O)(=O)N1CC(Cn2ccnn2)C1,-4%,0.65
FC(F)(F)Cn1ccnc1CN1CCOC2(CCCC2)C1,1%,-0.26
Cc1ccnc(N2CCC[C@H]2c2ccc3c(c2)OCCO3)n1,-3%,0.65
CCc1cc(CC)c(NC(=O)N(C)Cc2cnc(N)nc2)c(CC)c1,-20%,2.12
CCC[C@H](NC(=O)c1cc2c(s1)CCC2)c1nnn[nH]1,-3%,0.41
Cc1ccc(Cl)c(S(=O)(=O)N[C@H]2CNC[C@@H]2c2ccccc2)c1,2%,-0.38
Cc1cc([C@H]2C[C@H]3CC[C@@H](C2)N3C(=O)[C@@H]2CCC[C@H](N)C2)ccc1F,-8%,0.95
CC1(C)CCC[C@@H]1N(Cc1ccccc1)C(=O)Nc1ccc(C(N)=O)cc1F,-4%,0.57
O=C(NCCc1ccco1)OCC(F)(F)F,-5%,0.59
Cn1cc(-c2cccc3c2OC(F)(F)O3)c(C(=O)O)n1,-13%,2.01
COC(=O)CCC(=O)Nc1cc(Cl)cc(Cl)c1,0%,-0.01
CCCS(=O)(=O)N1CC(S(=O)(=O)c2ccc(Cl)cc2)C1,-21%,2.72
CN1CCC(N(C)Cc2ccc(OCc3ccccc3)cc2)CC1,25%,-3.8

SMILES,% Inhibition,Z score
Cc1cc(C(=O)N[C@H]2CCOC3(CC(C(=O)O)C3)C2)cc(C)c1F (stereo partly specified),-8%,1.5
CN(C)[C@@H](CNCc1c[nH]nc1-c1cccnc1)c1cccs1,-12%,1.2
Cc1[nH]ncc1C(=O)N[C@@H](CO)c1ccc(Cl)cc1C(F)(F)F,-9%,0.81
Cc1ccccc1N1CCN(C(=O)c2ccc3ncccc3c2)CC1,37%,-1.04
c1ccc(-c2nc(CNc3nnc([C@@H]4CCCO4)o3)cs2)nc1,-13%,1.29
O=C(Nc1ccccc1)Nc1ccc(=O)n2c1[C@@H]1C[C@@H](CN(C(=O)Nc3ccc(F)cc3)C1)C2,0%,-0.03
O=C(NC1CCCCC1)N1CC(n2cc(CO)nn2)C1,-4%,0.83
COCc1ccccc1C(=O)N1CCCC[C@H](N2CCCC2)C1,-11%,0.98
Cc1cnc(CN[C@@H](C)c2ccc(C)c(F)c2)o1,-12%,2.28
COc1ccc(CN(C)C(=O)[C@H]2NCC23CCOCC3)cc1C,-4%,0.66
CC(=O)N[C@H]1CN(Cc2cccnc2)C[C@@H]1c1ccc(C)cc1,-4%,0.68
COc1ccccc1-c1ncc(CN(C)C[C@H]2CC(=O)N(C3CCCC3)C2)s1,-7%,1.44
COc1cc([C@H]2CC(=O)Nc3c2c(=O)[nH]n3C2CCOCC2)cc(OC)c1O,-7%,0.87
O=C(NC1CCCCC1CO)NC1CCOC1C1CC1 (stereo unspecified),12%,-1.82
Cc1cc(=O)[nH]c(CCNC(=O)N2CCC[C@H]2c2nc3c(C)cccc3[nH]2)n1,3%,-0.54
CNc1nc(C)cc(C(=O)Nc2ccnn2C[C@H]2CCOC2)n1,35%,-5.12
COc1cc(C)sc1C(=O)NCc1cc2n(n1)CCNC2,-12%,1.39
COc1ccc(-n2cc(-c3cccc(OC)c3)nc2NC(=O)CN(CC(C)C)C(=O)CC(C)C)cc1,6%,-0.54
O=C1Cc2ccc(CC(=O)N3CC(=O)N(C4CC4)C3)cc2N1,-5%,0.84
O=C(Cc1cc(-c2ccccc2)on1)NCCNC(=O)C1CCCC1,-4%,0.44
CC[C@@H](C(=O)NCc1ccc(Cl)cc1)N(C)CC,-2%,0.35
O=C(NCCn1nc(C2CC2)cc1C1CC1)c1ccncc1,-4%,0.88
O=C(Nc1ccc(C(F)(F)F)cc1)c1ccccc1NCc1ccccc1,-9%,1.1
CN(CC1CCCCO1)c1nnc(Cc2c[nH]c3ccccc23)n1CC1CCOC1 (stereo unspecified),-3%,0.6
N#Cc1c(-c2ccccc2)cc(-c2ccc(F)cc2)nc1N1CCCCC1,7%,-0.89
CC(C)c1nnc2n1CCN(c1cncc(-n3cccn3)n1)C2,9%,-1.16
